Results: the supplement of paper PMC12632987
Whole data set: some 1,800 sequences, median “median log2 fold change of GCK-ALFA target abundance (FLAG IP / Myc IP barcode read proportion)” near 0.14, cut for the lowest 2% near -0.84. The list shows a part of the results.

T1: TRAF2, Q12933
T1 chain: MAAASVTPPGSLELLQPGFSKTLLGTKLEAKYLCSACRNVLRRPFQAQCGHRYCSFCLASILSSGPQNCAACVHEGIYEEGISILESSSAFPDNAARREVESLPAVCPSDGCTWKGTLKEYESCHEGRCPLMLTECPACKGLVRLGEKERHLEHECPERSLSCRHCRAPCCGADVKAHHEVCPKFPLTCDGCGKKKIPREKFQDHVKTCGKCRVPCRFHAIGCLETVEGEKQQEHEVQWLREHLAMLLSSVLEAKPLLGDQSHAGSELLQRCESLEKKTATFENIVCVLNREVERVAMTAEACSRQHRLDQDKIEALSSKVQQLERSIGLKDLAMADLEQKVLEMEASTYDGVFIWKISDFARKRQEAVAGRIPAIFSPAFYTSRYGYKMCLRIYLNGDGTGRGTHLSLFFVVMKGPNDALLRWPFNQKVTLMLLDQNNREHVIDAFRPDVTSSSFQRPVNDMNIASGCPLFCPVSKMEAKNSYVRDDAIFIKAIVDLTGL

B1: traf2_out_16_177_1456 (protein)
chain: ELDRVMDRLVILSHLRRAALLIVEDNSPEAEEHLARAREEAEAAGDEEGLALADRIEELAAQNTPEALAQLKALAAEAQRRAQELADEAERLIAERAAAE
B2: traf2_out_20_38_2026 (protein)
chain: SMEEEEEKKLEELIKVAQEAYDEAEKKIEELKKEGKSIEEIAEIAKEEIERILSEEGLEEEKEELIEEVDLVLDSPDAERLIARILARAVALAHQKRLEK
B3: traf2_out_17_162_1647 (protein)
chain: AEVERRLEELERLLRELEERVRELEEKAKNLESLSKSELSDLIVEASEIKRRALEAAEELRELREELPPERYERLLRRLEEVVERANRIAQLFYKEYEKK
B4: traf2_out_14_17_1291 (protein)
chain: DIIEKLEEILKTAKELAKKYPELKLELTQLERKAESALVLAEMYEEDPSYKPELIQGLKNLIKLAKEVAEKLKPISAEAVKKLEEMEETAKEILKEVEAE
B5: traf2_out_11_169_795 (protein)
chain: EEAEKNRKINEKALELNDKAKEELLEHALELAKKEGLDVEEVKAIYEKNKNKSLSAVASALIKYFKSKGAEEAAKAVEEKYEELKEKINKEMTAFIKELE
B6: traf2_out_18_3_1900 (protein)
chain: KEEKLQEVSEKIDEIIDEVTARAREVLDWLAAHHPEVAARVDALRADLEAGAGPFGILEALAELAREAGDEELAEEIEKFLKEKREELQKLVDEYEKLLA
B7: traf2_out_8_174_2574 (protein)
chain: SERERLRIVSEVLTEFADILDEAEERLEALKDLPLEELRKESQKILDEALKRIDEIEERRVKEVDEETAELIRRAARSAKQQLRNMVEGTIKRKELREKA
B8: traf2_out_18_3_1933 (protein)
chain: SEEERKEISEKIDEIVDEVRARAVEELERARKELPEHRERIDRLRATLEAGGAPFGILDALAELYREAGKEEEAEEIEEFLREKRKKMQELVEKYEELIK
B9: traf2_out_9_108_2598 (protein)
chain: MTPEELADEEVEEVIGTVEEKVPEVKFSEEQKENIRRELHRVVRLSEITNRDTIRSYVSSLVLLSARDLPLETLERIADVLIELDPSTKSTVERTLSLLK
B10: traf2_out_6_166_2478 (protein)
chain: EEEIRKRIRELVKKFGEYEPEIVIEAFEKLAEERSDERARLARQFATAVRQAQKAGLPVETALSGLVDGLIALGVPLEEILELLEEALKIAEEIAKEKEE
B11: traf2_out_18_167_1825 (protein)
chain: EEEKEKRIEELSDRLIALSEVRRAALAALEAARTDPAAAPAALAAVIAALEAVPEFRPDAAALRAAAPEARPALLEEVAERAGREANRLYKERERLKKEL
B12: traf2_out_14_149_1243 (protein)
chain: SAMAKKFKAAAELYEKVAEALKEVIKLLKAGKVEEAKKLLKETIKELEEEGKKAGITISAIFELEHILELLDTDVEKAKKAAEEALKRAKSAADAFRSLA
B13: traf2_out_11_155_685 (protein)
chain: EEKQKINNELVDKISEIADKAKAEARAIAAATAAAHPEAAAALAATLEASAGFGLSSFLGRLAATFRALGLADAAAQVEALRAQAQKEMNAAVKEAEEKL
B14: traf2_out_14_154_1269 (protein)
chain: DALWAELEYHSAWRRFYDSVVEAMKTLSREETLAHLRATTDLVVARVPEHAAEIRARAARIEAALAGSEEERAALLAELEAEAAAEAKKARAAYEKILAE
B15: traf2_out_15_151_1301 (protein)
chain: SVEEELAKAEEEMKKQLERTLKEMKEVAEKEKDPELKAKLQEVIEALEAVKDKDIVTISLAIRAARHVLEAYRALTEEGDEERAAEHLALADKLLAELKA
B16: traf2_out_13_95_1206 (protein)
chain: EEEKTKKLREITNKIADELIDFVEEKADEIEEKTGIEEYRDDILRTLRRYGVRAAVALIREYAKKDPEHAEVFEKAAEEAEKKIREAGKKAAEEMKKIEE
B17: traf2_out_11_155_760 (protein)
chain: STRIALANAINDAAMEIADKIDAFIEEVIAEVEKEDPEVAKEIKAALEKHRDASARSKAKIVADVLKKHGYEEKAKRVEEFLEEAQKELNKRVKEIEESA
B18: traf2_out_18_3_1932 (protein)
chain: TEEERKEISDKIDEIVDEVRAYAERELARAREELPEHAARIDALEATLRAGGAPFGVLDALAELYREAGLEERAKEIEEFLRKKRKEMQKLVEEYEELIK
B19: traf2_out_20_3_2138 (protein)
chain: EELEKKLQEELDKAIALLKQAAALADAATAAQLDALIATLKASKELSYEDRLVTLSEIRRQVLALAEAARAAGKAELAALLEEAADALNKAMNLVMKIIE
B20: traf2_out_17_162_1523 (protein)
chain: SPLEERLAALEARLEALEKRLKELKEKLKNLKNMSKEELTDLLVEASEARREALELAEELRELKPEIGEERAGALIERAEAIAEELQKIANKIYKELEKK
B21: traf2_out_11_169_772 (protein)
chain: EEAEKNRKINDKALELNDEAKKKLEEKALALAKEAGLDVEEIKKIFEENKNKSLSAVASALIEYFLSKGKEEEAKKILEFYEELKDEINKESSAFIKELE
B22: traf2_out_14_17_1290 (protein)
chain: KVLEILKEIIKRAEELLKEHPELALELNQLLRKAESTLVLAEMYEEDPSYKPLLIESLRQLAKLAEELAKKLEKKSKEGAKIVEEIRRKAEEAREIVEKE
B23: traf2_out_11_155_735 (protein)
chain: EEKQKLIQEMNDKIMELFEEARRRALEIARRAAERHPEHREEIEAAIEESKGFSYRSFILEMIRLFRELGLEEEAEELERLLEETQRKASKIVIETEKKL
B24: traf2_out_6_156_2399 (protein)
chain: TVEEILAETLKKIEELIKKLAKASEEKKIKYINEIAGTVYRGLQRLREAGASVEEIEAFGEKVLKFTEEKLKEEGIDEDTKNLILASLSAVIRVAIEAAK
B25: traf2_out_11_155_698 (protein)
chain: EKERELNNELVDKMMEIEDEAKAELEAIAAEAAAAHPEHAARIAALLAESRRFSATTFGGRMAALFRELGLEEYAARVEALLEEAQKKKNEVYKEIEKKR
B26: traf2_out_17_178_1693 (protein)
chain: SKEALRAEISALTDRLIDHTDRYGTRLLERARAEGVLSPEELAALEAALASGSNRTFLATARELLPRSAASPETLALLAEFEAEYRRLAKEIAEAYKKYE
B27: traf2_out_11_169_811 (protein)
chain: EEKEKNRKINDFALELNDKAKEELLEHAKALAKEAGLDVEEVEAIFEKNKNKSLSAVAAALIDYFRSKGKEEAAEAVLKKYEELKDKINKEVTKKIKELE
B28: traf2_out_13_95_1096 (protein)
chain: SKELAEKIMEIADKMLDEVEKLLEELLKEAKKAGKLEEEVTEALNLARYRSINEAIHLLEELAKKHPEFKELYEKTIKEIKEIIKEAGKEVAKLIKEEKE
B29: traf2_out_11_169_878 (protein)
chain: EEAEFNRKVNDFALELNDEAKAELKEFALKLAKELGLDVAEVEAIFEKNKNSSLSAVAAALIEYFKSKGKEEAAKKILEKHEELKEEINKKFSEKLKELK

Target: T1, TRAF2, Q12933
Experiment: median log2 fold change of GCK-ALFA target abundance (FLAG IP / Myc IP barcode read proportion) (log2 ratio); each designed protein is fused to an ALFA-tag nanobody in HEK293 cells to bring the named protein to FLAG-tagged glucokinase (GCK); Myc marks an untargeted standard; higher = target protein stabilised (more abundant)
Conditions: target protein: 3xFLAG-MCP-GCK-ALFA reporter; HEK293 landing pad (RPLP)
How it was run: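 Binders fused to an ALFA nanobody were recombined as a library into HEK293 landing-pad cells, which were induced with 2 μg mL^−1 doxycycline and then transfected to express a FLAG-tagged target and a Myc-tagged standard. After 48 h, circular RNA barcodes recovered by anti-FLAG and anti-Myc immunoprecipitation of lysates were reverse transcribed, amplified and sequenced. Each binder's target abundance is the median log2 ratio of FLAG to Myc barcode read proportions, from barcodes present at ≥10^−7 in both replicates, binders carrying ≥3 barcodes per replicate, a 10^−6 pseudocount and pooled replicates.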
In the case of B1, the “median log2 fold change” value is reported as -0.216.
In the case of B2, the “median log2 fold change” value is reported as -0.0149.
In the case of B3, the “median log2 fold change” value is reported as 0.242.
B4 was tested, and the “median log2 fold change” value was 0.128.
For B5, the “median log2 fold change” value was 0.128.
In the case of B6, the “median log2 fold change” value is reported as 0.0634.
With B7 the “median log2 fold change” value was -0.187.
B8 was tested, and the “median log2 fold change” value was 0.136.
In the case of B9, the “median log2 fold change” value is reported as 0.0238.
For B10, the “median log2 fold change” value was 0.332.
B11 was tested, and the “median log2 fold change” value was 0.35.
B12 was tested, and the “median log2 fold change” value was -0.113.
In the case of B13, the “median log2 fold change” value is reported as 0.177.
In the case of B14, the “median log2 fold change” value is reported as 0.27.
With B15 the “median log2 fold change” value was 0.136.
For B16, the “median log2 fold change” value was -0.148.
For B17, the “median log2 fold change” value was 0.182.
In the case of B18, the “median log2 fold change” value is reported as 0.138.
B19 was tested, and the “median log2 fold change” value was -0.268.
For B20, the “median log2 fold change” value was 0.633.
For B21, the “median log2 fold change” value was 0.396.
With B22 the “median log2 fold change” value was 0.118.
In the case of B23, the “median log2 fold change” value is reported as -0.138.
B24 was tested, and the “median log2 fold change” value was 0.209.
B25 was tested, and the “median log2 fold change” value was 0.117.
B26 was tested, and the “median log2 fold change” value was 0.291.
With B27 the “median log2 fold change” value was 0.311.
With B28 the “median log2 fold change” value was -0.702.
B29 was tested, and the “median log2 fold change” value was 0.161.
